In PubChem BioAssay AID1346428 (National Center for Advancing Translational Sciences (NCATS), 2018):
Several values for one entry are separate records, joined by “and”; a condition that tells them apart may be missing. Equal values may be shown once. The campaign covered roughly 48,000 compounds. About 1,200 (2.5%) were called active. Inconclusive results (about 2%) are left out.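 The calls were made as follows: active = activation of at least 60% and not above a set upper limit (about 1 call in 100 departs from these limits); inconclusive = activation of 40% to 60%, or above that upper limit; inactive = activation under 40%.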 The list shows a part of the results.

target: Probable G-protein coupled receptor 32 (Homo sapiens) (UniProt O75388); experiment: qHTS for Agonists of Human Resolvin D1 Receptor DRV1; details: CHO-K1 GPR32 beta-arrestin PathHunter luminescence, 90 min; at 76.9 µM; hits give high values; zero percent set by DMSO-only wells; also: 0% is about no effect
Sequence of UniProt O75388 (O75388 whole entry, looked up): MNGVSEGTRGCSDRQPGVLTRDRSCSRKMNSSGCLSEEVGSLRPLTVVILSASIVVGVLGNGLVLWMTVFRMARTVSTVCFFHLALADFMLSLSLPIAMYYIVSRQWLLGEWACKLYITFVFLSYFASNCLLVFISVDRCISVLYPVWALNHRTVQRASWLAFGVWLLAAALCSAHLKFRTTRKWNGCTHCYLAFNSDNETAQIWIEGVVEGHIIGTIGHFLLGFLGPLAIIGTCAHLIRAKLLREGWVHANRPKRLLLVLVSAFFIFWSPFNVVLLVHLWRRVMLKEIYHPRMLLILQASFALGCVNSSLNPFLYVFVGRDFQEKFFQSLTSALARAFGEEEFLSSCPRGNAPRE
Method in brief: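 Luminescent readout of beta-Gal complementation quantifies ligand-induced beta-arrestin association with GPR32 in CHO-K1 cells; 90 min compound incubation at 37 °C, detection 1 h at room temperature.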

activation, inactive:
Cc1ccc(NC(=O)CN2C(=O)c3ccccc3Sc3ccc(C(=O)N4CCOCC4)cc32)cc1C -14.9%, CC1CCc2noc(NC(=O)c3ccc([N+](=O)[O-])cc3)c2C1 (stereo not drawn) -1.41%, CCC(=O)N1CCc2cc(S(=O)(=O)NCCC(=O)Nc3ccc(C)cc3C)ccc21 0.532%, Cc1ccccc1OCCSc1nc2ccc(NC(=O)c3ccco3)cc2s1 6.18%, CC(=O)c1cccc(NC(=O)c2cc3sc(Cl)cc3n2C)c1 22.3%, Oc1c(C(c2ccc(Cl)cc2Cl)N2CCN(Cc3ccccc3)CC2)sc2nc(-c3ccco3)nn12 (stereo not drawn) -7.8%, CCCOC(=O)c1c(-c2ccccc2)nc(CC)c(C(=O)SCC)c1CCC -21.5%, CCCn1c(=N)c(C(=O)NCc2ccco2)cc2c(=O)n3cc(C)ccc3nc21 19.1%, CCC(Sc1nc2ccncc2[nH]1)C(=O)Nc1cc(C)ccc1C (stereo not drawn) -0.343%, Cc1ccc(CNC(=O)Cn2ccn(-c3ccc(F)c(F)c3)c(=O)c2=O)cc1 -5.67%, Cc1ccc(C2N3CC4(C)CN2CC(c2ccccc2)(C3)C4=O)cc1 (stereo not drawn) -0.337%, CCn1cc(/C=C(\NC(=O)c2ccccc2Cl)C(=O)NCCCn2ccnc2)c2ccccc21 21.8%, COCCNC(=O)CCCn1c(SCc2ccccc2C)nc2c(sc3ccccc32)c1=O -27.9%, CC(C)c1nc(CN(C)C(=O)N[C@H](C(=O)N[C@@H](Cc2ccccc2)C[C@H](O)[C@H](Cc2ccccc2)NC(=O)OCc2cncs2)C(C)C)cs1 -10.7%, Cc1ccc(CNC(=O)c2ccc(N3Cc4ccccc4Oc4ncccc43)s2)cc1 -17.5%, CCOc1ccc(C(=O)Nc2ccc(C(=O)OCc3cc(=O)n4c(C)csc4n3)cc2)cc1 -17.8%, CCOCCCNC(=O)C(c1ccc(Cl)cc1)N(Cc1ccc2c(c1)OCO2)C(=O)c1ccc(NC(C)=O)cc1 (stereo not drawn) -7.07%, COc1ccc(NC(=O)C(=O)NCc2ccco2)c(OC)c1 -2.44%, COc1ccc(N2CCN(c3oc(/C=C/c4ccccc4OC)nc3C#N)CC2)cc1 -35%, CC(C)Oc1ccc(CNC(=O)c2cccc(NC(=O)c3nsc4ccccc34)c2)cc1 -16.5%, COc1ccc(OC)c(CNC(=O)C2CCN(S(=O)(=O)c3ccc4[nH]c(=O)oc4c3)CC2)c1 -5.58%, Cc1cc(C)cc(NC(=O)N2CCC(N3CCN(Cc4ccccc4)C(=O)C3=O)CC2)c1 -18.8%, O=C(Nc1ccc(C(=O)OCc2cc(=O)n3ccsc3n2)cc1)c1cccc(F)c1 -9.75%, CCOc1ccc(CC(=O)Nc2c(C(=O)c3ccc(F)cc3)oc3ccc(Cl)cc23)cc1OCC -2.33%, Cc1ccc(CNC(=O)c2c[nH]n3c(=O)c(Cc4ccc(F)cc4Cl)c(C)nc23)cc1 6.26%, Cc1nnc(N2CCN(c3cccc(C(F)(F)F)c3)CC2)c2c1nnn2Cc1ccccc1 -0.768%, Cn1c(C(=O)N2CCC(C(=O)N3CCN(c4ccccc4)CC3)CC2)cc2sccc21 1.63%, COc1ccc(N2Cc3cccc(C(=O)Nc4cccc(F)c4)c3C2=O)cc1 -2.05%, Cc1cc(NC(=O)C2CCCN(S(=O)(=O)c3cn(C)cn3)C2)ccc1Br (stereo not drawn) -0.353%, Cc1ccc(-c2cc(NC(=O)C(C)Oc3ccccc3F)on2)cc1 (stereo not drawn) -3.71%, CN(C)c1ccc(C(=O)Nc2ccc(-c3nc4ccccc4o3)cc2)cc1 -11%, Cc1noc2ncnc(NCc3ccc(Cl)cc3)c12 32.4%, Clc1ccccc1-c1nnc(SCc2nc(-c3ccccc3)no2)n1-c1ccccc1 49.9%, O=C(NCCc1ccc(Cl)cc1)c1ccc(CSCc2ccc(Cl)cc2)o1 -20%, COc1ccc(N2CCN(C(=O)Nc3ccccc3Cl)CC2)cc1 -1.39%, COc1ccc(Cn2c(CCC(=O)Nc3ccc(OC)c(Cl)c3)nc3cccnc32)cc1 4.67%, CCOc1ccc(NC(=O)CCC(=O)N2CCSc3ccccc32)cc1 -8.67%, CCCC(=O)n1nc(-c2cccnc2)nc1NCc1ccccc1 -20.7%, CCc1ccccc1NC(=O)Cn1c(=O)n(CCc2ccccc2)c(=O)c2ccccc21 -12.2%, O=C(Nc1ccc2nc(SCC(=O)N3CCOCC3)sc2c1)c1cccc(F)c1 -6.83%, COc1ccc(NS(=O)(=O)c2c(C)nc3scc(C)n3c2=O)cc1 14.2%, CCCCNC(=O)CCSc1nc(-c2ccc3c(c2)OCO3)cc(C(F)(F)F)n1 10.6%, CCOC(=O)N1CCN(S(=O)(=O)N2CCCC(C(=O)NCc3ccc(OC)cc3OC)C2)CC1 (stereo not drawn) -11.4%, O=c1oc2ccc(Cl)cc2cc1-c1cn2c(n1)sc1ccccc12 -2.22%, COc1cccc(NC(=O)CSC2=Nc3ccccc3C3=NC(CC(=O)NCc4ccccc4OC)C(=O)N23)c1 (stereo not drawn) 1.68%, OC[C@@H](O)[C@H](O)[C@H](O)[C@@H](O)CO -24.6% and -15%, COC(=O)c1scc(-c2ccccc2)c1S(=O)(=O)Nc1ccc(C)c(Cl)c1 -7.34%, CCOc1ccc(NC(=O)c2c(NCc3cccs3)sc3c2CCCCC3)cc1 -7.83%, Cc1ccnc2nc(NC(=O)c3ccccc3Cl)nn12 -3.34%, Cc1cccc(OCC(=O)N(Cc2ccc(N(C)C)cc2)Cc2ccco2)c1C -14.5%, COc1ccc(C2C=C(c3ccccc3)Nc3nc(NC(=O)/C=C/c4ccccc4OC)nn32)cc1 (stereo not drawn) -17.4%, CCC(=O)N1CCc2cc(Br)cc(S(=O)(=O)N3CCCC(C(=O)Nc4ccc(OC)cc4OC)C3)c21 (stereo not drawn) 2.1%, Cc1cccc(N(CC(=O)N(C)Cc2ccccc2)S(=O)(=O)c2ccccc2)c1C 22.4%
